# Assay results reported in the supplement of paper PMC7826260.
# The other results are listed elsewhere or left out. One pool of 16,384 single-stranded DNAs met each Rep nickase domain in vitro at 3 µM enzyme and 37 °C for 1 h; the strands have 90 letters, of which the middle is given. The score is log2 (uncut reads / reads without enzyme); uncut sequences lie near 0, cut ones below; no hit call is given. Because reads are shares of a total, they shift together; uncut strands gain when others are lost, and binding without cutting may add a little.
# Tests used:
# Assay in all cases: uncleaved DNA left, log2 of reads against the no-enzyme library (log2 ratio); higher = less cleavage (more negative = more Rep cleavage of the k-mer); sequences stand for … in CTCGTCCG…ACCGGAGA
# [1] = tested on: T1, Rep nickase domain of Muscovy duck circovirus
# T1 sequence (protein, residues 1-111, tag omitted): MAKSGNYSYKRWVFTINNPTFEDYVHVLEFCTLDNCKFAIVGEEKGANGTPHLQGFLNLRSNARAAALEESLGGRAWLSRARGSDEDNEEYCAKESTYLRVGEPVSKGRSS
# Description: (§1)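 A pool of 90-nt single-stranded DNAs with seven random bases just before the constant AC of the nick site (name = the seven bases) was cut by 3 µM recombinant His6-SUMO-tagged Rep nickase domain (300 nM DNA, 50 mM HEPES pH 8.0, 50 mM NaCl, 1 mM MnCl2, 1 h, 37 °C, three replicates). Uncut DNA was amplified and sequenced.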
# [2] = tested on: T2, Rep nickase domain of banana bunchy top virus
# T2 sequence (protein, residues 1-94, tag omitted): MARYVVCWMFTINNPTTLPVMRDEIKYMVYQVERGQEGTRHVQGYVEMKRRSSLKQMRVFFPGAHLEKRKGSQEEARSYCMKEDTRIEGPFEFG
# Description: as §1
# [3] = tested on: T3, Rep nickase domain of cabbage leaf curl virus
# T3 sequence (protein, residues 1-116, tag omitted): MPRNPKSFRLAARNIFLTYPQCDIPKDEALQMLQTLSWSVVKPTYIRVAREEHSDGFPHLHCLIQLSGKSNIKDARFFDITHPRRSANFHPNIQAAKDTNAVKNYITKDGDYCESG
# Description: as §1
# [4] = tested on: T4, Rep nickase domain of chickpea chlorotic dwarf virus
# T4 sequence (protein, residues 1-124, tag omitted): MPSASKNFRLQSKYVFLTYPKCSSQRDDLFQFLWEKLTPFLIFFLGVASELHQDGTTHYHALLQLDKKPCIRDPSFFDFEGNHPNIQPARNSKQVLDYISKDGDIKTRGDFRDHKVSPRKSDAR
# Description: as §1
# [5] = tested on: T5, Rep nickase domain of faba bean necrotic yellows virus
# T5 sequence (protein, residues 1-98, tag omitted): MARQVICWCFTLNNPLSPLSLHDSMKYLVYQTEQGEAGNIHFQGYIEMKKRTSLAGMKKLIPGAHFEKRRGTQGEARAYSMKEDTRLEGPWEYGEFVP
# Description: as §1
# [6] = tested on: T6, Rep nickase domain of maize striate mosaic virus
# T6 sequence (protein, residues 1-117, tag omitted): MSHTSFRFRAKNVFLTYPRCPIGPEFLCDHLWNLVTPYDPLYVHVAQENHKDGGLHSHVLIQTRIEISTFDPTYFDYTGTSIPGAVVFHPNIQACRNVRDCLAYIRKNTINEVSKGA
# Description: as §1
# [7] = tested on: T7, Rep nickase domain of porcine circovirus 2
# T7 sequence (protein, residues 2-116, tag omitted): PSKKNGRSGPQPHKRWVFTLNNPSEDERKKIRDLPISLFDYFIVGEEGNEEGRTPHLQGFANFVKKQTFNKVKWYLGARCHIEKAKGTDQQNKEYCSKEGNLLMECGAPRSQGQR
# Description: as §1
# [8] = tested on: T8, Rep nickase domain of tomato golden mosaic virus
# T8 sequence (protein, residues 1-124, tag omitted): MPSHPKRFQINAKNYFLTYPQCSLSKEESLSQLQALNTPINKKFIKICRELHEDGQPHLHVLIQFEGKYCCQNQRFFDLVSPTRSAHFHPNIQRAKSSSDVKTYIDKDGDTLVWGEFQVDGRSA
# Description: as §1
# [9] = tested on: T9, Rep nickase domain of tomato yellow leaf curl virus
# T9 sequence (protein, residues 1-136, tag omitted): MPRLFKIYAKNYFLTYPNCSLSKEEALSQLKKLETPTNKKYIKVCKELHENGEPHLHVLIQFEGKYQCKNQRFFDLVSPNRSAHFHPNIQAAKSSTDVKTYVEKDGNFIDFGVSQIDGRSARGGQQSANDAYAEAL
# Description: as §1
# [10] = tested on: T10, Rep nickase domain of wheat dwarf virus
# T10 sequence (protein, residues 1-137, tag omitted): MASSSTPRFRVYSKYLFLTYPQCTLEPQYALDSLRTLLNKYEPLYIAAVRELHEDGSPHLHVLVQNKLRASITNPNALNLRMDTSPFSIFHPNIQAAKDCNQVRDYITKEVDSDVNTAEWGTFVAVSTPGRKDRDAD
# Description: as §1
Sequence,uncleaved DNA left (log2) [1],uncleaved DNA left (log2) [2],uncleaved DNA left (log2) [3],uncleaved DNA left (log2) [4],uncleaved DNA left (log2) [5],uncleaved DNA left (log2) [6],uncleaved DNA left (log2) [7],uncleaved DNA left (log2) [8],uncleaved DNA left (log2) [9],uncleaved DNA left (log2) [10]
CGAACAT,-0.0306,0.0443,0.434,1.17,-0.0294,1.39,0.154,-0.0449,0.108,0.182
TTGGTGA,-0.0159,-0.0381,-0.166,-0.218,0.047,-0.821,0.156,-0.0427,0.0801,-0.0542
GCCCTAA,-0.0935,0.0708,0.155,0.45,-0.0653,0.434,-0.00212,0.0379,0.0354,0.0255
GTTAACC,-0.0741,0.0737,0.189,0.665,-0.0474,1.44,-0.0599,0.0153,0.0477,-0.022
GCCGCGA,-0.0213,-0.146,-0.829,0.0249,-0.194,-0.549,0.0674,-0.0833,-0.198,-0.212
CCCTTCT,-1.29,-0.103,-0.193,-2.65,0.0217,-0.841,-2.53,-0.293,-0.0432,-0.0257
CATTTTC,-0.76,-0.663,-0.116,-0.544,0.0739,-1.03,-0.61,0.0775,-0.00436,-0.0207
GTTGTAT,0.149,-0.0234,0.361,0.883,0.0991,1.73,0.165,0.231,0.135,0.149
GAGCCAG,0.0228,0.101,-0.123,0.353,0.0699,-0.00312,0.108,0.0672,0.0401,0.0939
ACTTAAT,-1.34,-0.388,-0.267,-1.2,-0.0497,-0.808,-3.22,0.0864,-0.103,-0.00302
TTTGCCC,0.00514,-0.128,-0.246,-0.783,0.00652,-1.1,-0.181,-0.135,0.00403,-0.0909
CTTTCTG,-0.0829,-0.0563,-0.524,-0.491,-0.155,-0.791,-0.115,-0.241,-0.117,-0.102
ACCCGTT,0.0162,0.123,-0.163,-1.5,0.0738,-0.535,-0.0849,0.196,-0.0614,0.0931
GTCAGCG,-0.125,0.0314,-0.778,-0.457,-0.19,-1.03,0.0913,-0.0778,0.0226,-0.123
TCATAGA,0.104,0.00256,-0.15,-0.253,0.0575,-1.08,0.136,0.0351,0.0856,0.0882
ATTGTAA,-0.0512,0.00645,-0.181,-0.471,-0.0681,-0.849,-0.136,0.0647,-0.0528,-0.0219
GCTGTTA,-0.079,-0.0863,-0.112,0.169,-0.154,0.833,-0.18,-0.00908,-0.115,-0.133
TATGGAG,0.154,0.0666,-0.612,-0.406,0.283,-0.94,0.264,0.165,0.154,-0.0519
TCTTTGC,-0.106,-0.078,-0.715,-0.367,0.133,-1.32,0.105,-0.142,0.0448,-0.182
CAGAGAG,-0.0123,0.0468,-0.539,-0.436,-0.00928,-0.945,0.187,0.0369,-0.0485,-0.162
GATCAGG,0.061,0.0625,0.425,1.17,-0.0695,1.13,0.23,0.0845,0.053,0.0459
GTAGCGT,0.13,0.0433,-0.544,-0.702,-0.0475,-0.65,0.139,0.00965,-0.00684,-0.011
CTGTCTC,0.0877,-0.0382,0.0809,0.137,0.0443,0.221,-0.108,-0.0542,0.0768,0.000786
TACGGTC,0.0619,-0.0339,0.171,0.00554,-0.0719,0.202,-0.0462,0.0111,-0.0446,-0.0683
TCCACGC,-0.161,-0.148,-0.0226,-0.346,-0.0813,-0.523,-0.0373,-0.18,-0.131,-0.163
AGCCTAT,-0.0419,-0.0873,0.161,0.049,-0.0552,0.307,-0.194,-0.0462,0.0256,0.082
TGCGTGG,0.0882,-0.00391,0.0706,0.225,-0.0369,0.484,0.0849,0.0702,0.0406,-0.133
AATGGGA,0.0347,0.0953,0.168,0.703,0.0477,0.481,0.122,0.111,0.0196,0.0467
TTAGTGA,0.19,-0.103,-0.115,-0.342,0.0882,-0.875,0.0164,0.0714,0.0407,-0.0431
GACTTAT,-0.538,-0.636,0.126,-0.0436,-0.226,0.915,-3.18,-0.13,-0.0656,0.0128
